# According to the supplement of paper PMC3334620:
# The full ranking holds about 33,000 sequences; the median of “E-score (-0.5 to 0.5)” is about -0.041, and the highest 2% start at about 0.37. Some of the results follow.
# Biological target: T1, Ecm22 (UniProt Q05958)
# T1 sequence: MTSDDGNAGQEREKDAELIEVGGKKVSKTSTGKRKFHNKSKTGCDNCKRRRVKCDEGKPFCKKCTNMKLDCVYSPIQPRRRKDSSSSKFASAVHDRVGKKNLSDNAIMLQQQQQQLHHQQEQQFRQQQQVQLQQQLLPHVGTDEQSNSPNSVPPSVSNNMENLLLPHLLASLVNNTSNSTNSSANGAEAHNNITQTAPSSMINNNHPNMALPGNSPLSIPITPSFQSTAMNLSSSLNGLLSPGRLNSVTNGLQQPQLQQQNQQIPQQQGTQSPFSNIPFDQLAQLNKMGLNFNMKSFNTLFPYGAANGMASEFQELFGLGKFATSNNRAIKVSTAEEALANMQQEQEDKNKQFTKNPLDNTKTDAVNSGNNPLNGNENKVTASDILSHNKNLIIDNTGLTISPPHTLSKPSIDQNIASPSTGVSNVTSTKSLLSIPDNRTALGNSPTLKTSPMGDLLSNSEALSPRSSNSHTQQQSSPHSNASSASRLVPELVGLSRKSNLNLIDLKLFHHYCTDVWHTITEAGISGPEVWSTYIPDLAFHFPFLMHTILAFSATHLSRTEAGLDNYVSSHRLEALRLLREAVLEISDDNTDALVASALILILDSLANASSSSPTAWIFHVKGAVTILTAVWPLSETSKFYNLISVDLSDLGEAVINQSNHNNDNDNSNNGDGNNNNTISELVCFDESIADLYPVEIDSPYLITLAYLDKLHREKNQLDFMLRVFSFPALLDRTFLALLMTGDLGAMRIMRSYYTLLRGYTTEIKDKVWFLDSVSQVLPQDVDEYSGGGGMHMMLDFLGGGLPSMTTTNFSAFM
# Experiment: PBM E-score (8-mer binding enrichment) (E-score (-0.5 to 0.5)); higher = stronger / more preferred TF binding; most listed sequences are background and not binding sites
# Details: protein concentration: 200 nM; construct: GST-full length
# Procedure: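 Universal 'all 10-mer' protein binding microarrays (Agilent AMADID 015681) probed with GST-tagged S. cerevisiae TFs (full-length or DBD) made by in vitro transcription/translation (PURExpress), about 100-200 nM. Bound TF was detected with fluorescent anti-GST. Each ungapped 8-mer (which stands for itself and its reverse complement) is scored by the PBM enrichment score (E-score), a modified Wilcoxon-Mann-Whitney statistic from -0.5 to +0.5, computed with the Universal PBM Analysis Suite. Scale: above 0.35 generally sequence-specific binding.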
row,Sequence,PBM E-score
1,ATTAGCTC,0.0201
2,CCGCACCG,0.178
3,ATAACCTA,-0.0165
4,CTTGCCGA,-0.0634
5,ACCGTGAA,-0.144
6,AGCCTACA,-0.301
7,AGGGCATG,-0.219
8,GGGCCTGA,-0.174
9,CACTCGCC,0.0536
10,CGTACAGA,0.382
11,GACGAATA,0.0261
12,AATATGAG,0.0443
13,ATCTTCAA,-0.215
14,AAGGAATG,0.00273
15,CGTAATCC,0.142
16,GAGAGACA,-0.234
17,ACTGTACC,-0.0754
18,AGCCGCAG,-0.0476
19,AGATAAGG,-0.0977
20,ACAAGCCT,-0.0972
21,AGGTATAT,-0.117
22,TAGTGACA,-0.173
23,GGTAGCTA,-0.142
24,GTCTGCAA,-0.237
25,AGCGACCC,0.203

row,Sequence,PBM E-score
1,ATTGTCAG,-0.134
2,AGGGGATC,-0.101
3,CACTGGCA,-0.302
4,CGGAGGCC,-0.117
5,CTATTGAA,-0.00223
6,ATATTCTG,-0.06
7,CCAGCTCG,0.224
8,TCATACAA,-0.115
9,CTTACGCA,0.0308
10,AATACGTC,0.0846
11,CTAAGGTA,-0.116
12,ACTTGTCC,0.0924
13,ATTAGCGA,0.3
14,ATTACATC,0.134
15,CTAAGGAC,-0.163
16,TTAAGTAA,-0.141
17,GACAAAAC,0.0451
18,ATTTATGC,-0.0278
19,CAGGTTCG,0.159
20,AGACTACA,0.106
21,AATCGTCT,0.0505
22,ACGCTTAG,0.149
23,AGGCGTCA,-0.1
24,AGTGTATG,0.13
25,AAGCATTC,-0.157

row,Sequence,PBM E-score
1,ATTCCGAG,0.184
2,CGGGGACC,-0.041
3,CGCTCCCC,0.149
4,TCCTCAAA,-0.248
5,GGCCGACC,-0.224
6,TATGCAAA,0.00949
7,AAATGCTA,0.0254
8,AATGCATC,-0.0805
9,AACGGGCA,0.287
10,AGAATATA,0.032
11,AGGGTAAT,-0.158
12,ACGATTCA,0.319
13,CCTCGTCA,0.232
14,ACTCAGTG,-0.17
15,CCCTGTAA,-0.193
16,CTAGTTGA,-0.225
17,CTCACTAC,-0.0354
18,AAAAAGCT,-0.193
19,AATTAGAG,-0.152
20,AGGTTAAA,-0.0746
21,ACACAGAC,-0.0717
22,CGAGGGCG,0.131
23,ACCATATC,0.138
24,ATATATGG,-0.0801
25,AGTCTAAG,0.00418

row,Sequence,PBM E-score
1,CAGCTTGA,-0.252
2,GCAGTTCC,-0.0351
3,AGTACATA,-0.0214
4,ATTCTCAA,0.0315
5,AGTCCTGG,-0.232
6,AGGAAAGA,-0.217
7,ACCCGTCG,0.0875
8,AACTTTGA,-0.18
9,AGCACTCG,0.0415
10,CGCATCTC,-0.0114
11,TCCTCGCA,0.231
12,CAAAGATG,-0.154
13,CCATCCTC,-0.00148
14,GACCCATC,-0.0195
15,GAAACACA,-0.0325
16,CGCGGAAA,0.035
17,CAGCGACA,-0.00433
18,CGCAGAAC,0.131
19,CTGCTGCA,-0.0858
20,CATTTCGG,-0.0209
21,CCACTTCC,0.0365
22,ACGGATAA,0.159
23,ATCAAGAC,-0.0718
24,AGTTTGAC,0.0023
25,CCACGCTA,-0.0414

row,Sequence,PBM E-score
1,CAGTGTCA,-0.0961
2,CTCTACGA,0.37
3,TACATAGA,-0.197
4,AGCCTCCG,-0.0869
5,AAGTCATA,-0.0414
6,GATACTAA,0.0504
7,GATTGGAA,-0.0505
8,AACCGGCG,0.163
9,GTCTCACA,-0.113
10,AGAGGGGA,-0.201
11,GCAACCGC,-0.126
12,ATGGAAAG,-0.0344
13,ACGCAAGA,0.0257
14,ACAGGTTG,-0.14
15,CCGTTTCA,0.135
16,CGCAACAC,-0.0561
17,GCGCAACC,-0.142
18,CACGGTAA,-0.143
19,GCGCATAC,0.0841
20,GGTCTAGA,0.161
21,CATTACGG,-0.0743
22,AATTATTA,0.0887
23,CTCCCCAA,-0.228
24,CCGATATA,0.0959
25,GTTCCCAA,0.165

row,Sequence,PBM E-score
1,CGCTAGCC,-0.299
2,CTCCTCAA,-0.036
3,ACGTCTAA,-0.0766
4,CCTTTTCG,0.235
5,CCGTTCAG,0.334
6,AGTTGCCG,-0.023
7,CTTAGGCC,-0.211
8,ATCTAAAG,-0.0827
9,ACACAGGC,-0.0291
10,GAACGTTA,0.205
11,GGATACTA,-0.144
12,AAGAGTGG,-0.00177
13,GATCCCCC,-0.217
14,GGAACCAA,-0.114
15,CCGTCCAG,0.00866
16,TAACGCAA,0.144
17,CCGCGTAG,-0.00811
18,GCTAAGCC,-0.254
19,GATGATGC,-0.0768
20,GTGCCATA,-0.0634
21,AGTGCAAC,-0.0754
22,AAACGCAA,0.139
23,GTGTGGTA,0.0384
24,GTGCTCGA,0.0388
25,CGCAATAC,0.06

row,Sequence,PBM E-score
1,GAGCATCC,-0.0877
2,GAGATGAC,-0.165
3,GGTCGATA,0.0384
4,CGACTCCA,0.0509
5,ATACGGCC,0.388
6,CGGACATA,0.155
7,CCCCATCG,0.125
8,GTGGTGCA,-0.177
9,GCCGATCC,0.111
10,GCCAAATA,0.0601
11,CCATCTGC,0.0169
12,AACCAGAC,0.00521
13,GACAGCCC,-0.157
14,CCGTAGGC,-0.192
15,ACATGCAC,0.0253
16,CTGATTAC,-0.0481
17,GGATAGTA,0.0415
18,GTCACCGA,0.0538
19,TATTAGCA,0.0512
20,CTGTATTA,-0.0817
21,AGTCTCAT,-0.19
22,CACATGTA,-0.0246
